Results reported in PubChem BioAssay AID2100 (National Center for Advancing Translational Sciences (NCATS), 2009).
In all, about 300,000 compounds went through this assay and about 1,200 (0.4%) were called active. Inconclusive results, whose numbers are uncertain, are shown with a selection of clear calls. The call rests on the fitted dose curve; in most records, active means well fitted inhibition curve with a large enough effect; inconclusive means small, poorly fitted or top-dose-only effect, or another doubt; inactive means no such curve, though single readings can be large or run the other way. Potencies beside an inconclusive call are fits to weak or partial responses and may not hold up.

These compounds were tested against Lysosomal alpha-glucosidase (Homo sapiens) (UniProt P10253) (assay: qHTS Assay for Inhibitors and Activators of Human alpha-Glucosidase Cleavage of Glycogen). Conditions: recombinant GAA, glycogen substrate, Amplex Red glucose oxidase fluorescence; activity change, negative = inhibition: at 76.4 µM (top of the series) unless noted.
Method in brief: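 qHTS, 1536-well; enzyme 4 nM final; cpd up to 77 uM; substrate bovine liver glycogen 30 ug; 50 mM citrate/phosphate pH 5.0, 0.01% Tween-20; 37 C, 40 min; Amplex Red detection 45 min RT; Hill fit → AC50.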
Potency means the concentration at half of the fitted maximal effect.
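Wherever activity change, negative = inhibition is given: 0% = full enzyme reaction and -100% = no-enzyme basal signal.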

| SMILES | Potency | activity change, negative = inhibition |
| --- | --- | --- |
| CCS(=O)(=O)N1CCc2cc(C(=O)Nc3cccc(NC(C)=O)c3)ccc21 | inconclusive: 28.2 µM [inhibitor, single point] | – |
| Cc1cc(NC(=O)CSCC(=O)N(c2cccc(Cl)c2)C(C(=O)NC2CCCCC2)c2ccc(O)c(O)c2)no1 (stereo not given) | inconclusive: 8.91 µM [inhibitor, partial curve] | – |
| Oc1ccccc1-c1nc2ccc(Cl)cn2c1Nc1ccc2c(c1)OCCO2 | – | inactive: 8.37% [at 76.3 µM] |
| CC(C)OC(=O)CCCCCN1C(=O)CSC1=S | inconclusive: 25.1 µM [inhibitor, single point] | – |
| CC(C)=NNc1nc(-c2ccccc2)cs1 | inconclusive: 8.84 µM [inhibitor, full curve] | – |
| O=C(CSc1oc(-c2ccc(F)cc2)nc1S(=O)(=O)c1ccc(Cl)cc1)c1ccccc1 | – | inactive: 7.94% [at 76.3 µM] |
| CCNC(=S)NNC(=O)c1csc2c1CCCC2 | inconclusive: 28.2 µM [inhibitor, single point] | – |
| Cc1ccc(Nc2nc(/N=C/N(C)C)n[nH]2)cc1C | inconclusive: 20 µM [inhibitor, partial curve] | – |
| COc1ccc(C(=O)c2c(C(F)(F)F)oc3c2C(=O)c2ccccc2C3=O)cc1OC | inconclusive: 4.97 µM [inhibitor, full curve] | – |
| CC(=O)c1ccc(NC(=S)NNC(=O)NC2CCCCC2)cc1 | inconclusive: 3.52 µM [inhibitor, single point] | – |
| O=C(Cn1cc([N+](=O)[O-])cn1)N1CCN(c2ccccc2)CC1 | – | inactive: -2.24% [at 76.3 µM] |
| COc1cccc(C2=NOC(C(=O)Nc3ccc(C(C)=O)cc3)C2)c1 (stereo not given) | inconclusive: 3.98 µM [inhibitor, full curve, poor fit] | – |
| COc1ccc(CCNC(=O)c2cc(=O)c3c(C)cc(C)cc3o2)cc1OC | – | inactive: 12.6% [at 76.3 µM] |
| O=c1oc2c(O)c(O)cc3c(=O)oc4c(O)c(O)cc1c4c23 | inconclusive: 4.47 µM [inhibitor, partial curve] | – |
| CN1c2ccccc2C(C)(C)C12C=Nc1c(ccc3ccccc13)O2 (stereo not given) | – | inactive: 8.45% |
| COc1ccc2c(c1)O/C(=C\c1ccco1)C2=O | inconclusive: 39.8 µM [inhibitor, single point] | – |
| Cc1csc(SCC(=O)c2ccc(S(=O)(=O)N3CCOCC3)cc2)n1 | inconclusive: 28.2 µM [inhibitor, partial curve] | – |
| COc1ccc(C)cc1NC(=O)C1CCN(S(C)(=O)=O)CC1 | active: 35.5 µM | – |
| CCOc1cc(/C=N/NC(=O)C(C)Sc2ccccc2)ccc1O (stereo not given) | inconclusive: 31.6 µM [inhibitor, single point] | – |
| S=c1[nH]nc(-c2ccc(Cl)cc2)n1/N=C/C=C/c1ccco1 | inconclusive: 39.8 µM [inhibitor, partial curve] | – |
| CCCOc1ccc(C2c3c(-c4ccccc4O)n[nH]c3C(=O)N2Cc2cccnc2)cc1 (stereo not given) | – | inactive: -14.1% [at 76.3 µM] |
| NC(=O)/C(=N\O)c1ccccc1 | – | inactive: 10.1% |
| O=C(CSc1nc2ccccc2nc1Cc1ccccc1F)Nc1cccc(C(F)(F)F)c1 | inconclusive: 56.2 µM [inhibitor, partial curve] | – |

| SMILES | Potency | activity change, negative = inhibition |
| --- | --- | --- |
| COc1ccccc1NS(=O)(=O)c1cc(N)ccc1N1CCCCC1 | inconclusive: 39.8 µM [inhibitor, partial curve] | – |
| COc1ccccc1C1C(C(N)=O)=C(C)Nc2nc(-c3ccccc3Cl)nn21 (stereo not given) | inconclusive: 28.2 µM [activator, partial curve] | – |
| Cc1c(C(=O)NN)sc(-c2ccccc2)c1C#N | inconclusive: 3.55 µM [inhibitor, full curve] | – |
| FC(F)(F)c1nc2ccccc2nc1N/N=C\c1ccccc1 | inconclusive: 31.6 µM [inhibitor, partial curve] | – |
| CCNc1ccc(-c2nc(-c3ccncc3)no2)cc1[N+](=O)[O-] | inconclusive: 100 µM [inhibitor, partial curve] | – |
| COc1ccc(C2=C(C)C(=NCc3ccc(OC(C)C)cc3)NS2(=O)=O)cc1 | – | inactive: -12.2% [at 76.3 µM] |
| CC1(C)CN(c2ccccc2)N(C(=O)c2ccc(C#N)cc2)C1=O | active: 20 µM | – |
| O=S(=O)(NCC(c1ccccc1)N1CCc2ccccc21)c1ccccc1 (stereo not given) | inconclusive: 28.2 µM [inhibitor, single point] | – |
| Cc1ccc(C(=O)NNS(=O)(=O)c2ccc(F)cc2)cc1 | inconclusive: 22.4 µM [inhibitor, partial curve] | – |
| CCOc1ccccc1C(=O)Nc1ccc2nc3c(c(Nc4ccc(OC)c(OC)c4)c2c1)CCCC3 | inconclusive: 20 µM [inhibitor, partial curve] | – |
| O=C(c1cc(-c2ccccn2)nc2ccc(Br)cc12)N1CCN(S(=O)(=O)c2ccccc2)CC1 | – | inactive: -3.56% |
| CC(C)(C)c1cc(-c2csc(Nc3ccccc3)[n+]2Cc2ccc(C(=O)O)cc2)cc(C(C)(C)C)c1O | inconclusive: 25.1 µM [inhibitor, partial curve] | – |
| CCOC(=O)c1c(C)n(C)c2cc(Br)c(O)c(O)c12 | inconclusive: 5.62 µM [inhibitor, full curve] | – |
| CCOc1ccc(Nc2oc(-c3cccs3)nc2C#N)cc1 | inconclusive: 28 µM [inhibitor, single point] | – |
| Cc1ccc(N2C(=O)CC(N(O)C3CC(=O)N(c4ccc(C)cc4)C3=O)C2=O)cc1 (stereo not given) | inconclusive: 31.6 µM [inhibitor, partial curve] | – |
| Cc1cccc2sc(NNC(=O)C3=COCCO3)nc12 | inconclusive: 3.16 µM [inhibitor, full curve] | – |
| CC1CCCC/C1=N\NC(=S)Nc1ccccc1 (stereo not given) | inconclusive: 15.8 µM [inhibitor, partial curve] | – |
| N#CC1=C(N)Oc2c(sc3ccccc23)C1c1ccco1 (stereo not given) | inconclusive: 25.1 µM [activator, partial curve] | – |
| FC(F)(F)c1ccc2c(c1)N1CCCC1CN2 (stereo not given) | inconclusive: 31.6 µM [inhibitor, partial curve] | – |
| COc1cc(OC)c([N+](=O)[O-])cc1/C=N/NC(=O)c1ccncc1 | – | inactive: -9.48% |
| CCOC(=O)c1c(C)[nH]c(C=Nc2ccccc2)c1O | – | inactive: 3.84% |
| CCOc1cc(C2C3=C(CC(C)(C)CC3=O)N(C)C3=C2C(=O)CC(C)(C)C3)ccc1O | inconclusive: 10 µM [inhibitor, partial curve] | – |
